Data as given in the supplement of paper PMC10369915.
This is one part of the list. No stated cut-off is given here; in the data, active = 3.2 or more and inactive = the rest. Only a few entries rise above the background.

The binders below were run against SHP2 C-SH2 domain E139D (assay: enrichment score (SH2-bound / input frequency) (ratio); bacterial display of known human phosphotyrosine sites (pTyr-Var adds point mutants) read by sequencing; higher = stronger binding; tyrosines were phosphorylated by kinases first). Conditions: peptide library: pTyr-Var.
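Further: displayed peptides selected on beads carrying the immobilized SH2 domain, with library peptides lacking any tyrosine serving as negative controls.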

Binder | enrichment score
NSRYTYKLEVK [USH2A_Y3747] | inactive: 0.907
KMMGRYEMYAR [UPB1_Y362_T359M] | inactive: 0.898
TPGPNYCPGFN [USH2A_Y463_R464C_YF] | inactive: 0.586
DGTIVCTGLET [USH2A_Y4487_Y4487C] | inactive: 0.918
TVLWRYTGTRP [UGT1A1_Y337] | inactive: 0.291
FKDVTYLKEEK [UBE3A_Y127_T129K] | inactive: 0.44
VFDMLYQVANL [USP24_Y1087_L1089V] | inactive: 1.47
ASELGYQFQAI [UROD_Y133_V134Q] | inactive: 0.792
KMTGRYEMFAR [UPB1_Y362_YF] | inactive: 1.52
VVQGIYGFHHF [UFSP2_Y285_YF] | inactive: 1.68
DDDPEYRKFLE [UPF3B_Y160] | inactive: 0.488
EYGFRYELVQY [UGGT2_Y1289] | inactive: 0.911
SHNELYFEAAE [VANGL1_Y344_E347A_YF] | inactive: 0.652
QGIYGYHHHMQ [UFSP2_Y287_Y290H] | inactive: 2.41
IATTIYSGDKI [UGGT2_Y823_A821T] | inactive: 0.622
SEELHYYVQNH [UQCRC2_Y207_F208Y] | inactive: 0.762
LFLACYFIGGG [UBD_Y161_C162F] | active: 3.59
QRALLYEDALY [UNC13D_Y56] | inactive: 0.889

These binders were tested against SHP2 C-SH2 domain wild-type in the same assay as above. Conditions: peptide library: pTyr-Var.

Binder | enrichment score
NSRYTYKLEVK [USH2A_Y3747] | inactive: 0.653
KMMGRYEMYAR [UPB1_Y362_T359M] | inactive: 1.09
TPGPNYCPGFN [USH2A_Y463_R464C_YF] | inactive: 0.717
DGTIVCTGLET [USH2A_Y4487_Y4487C] | inactive: 0.747
TVLWRYTGTRP [UGT1A1_Y337] | inactive: 0.316
FKDVTYLKEEK [UBE3A_Y127_T129K] | inactive: 0.751
VFDMLYQVANL [USP24_Y1087_L1089V] | inactive: 1.29
ASELGYQFQAI [UROD_Y133_V134Q] | inactive: 0.826
KMTGRYEMFAR [UPB1_Y362_YF] | inactive: 1.13
VVQGIYGFHHF [UFSP2_Y285_YF] | inactive: 1.36
DDDPEYRKFLE [UPF3B_Y160] | inactive: 0.39
EYGFRYELVQY [UGGT2_Y1289] | inactive: 1.18
SHNELYFEAAE [VANGL1_Y344_E347A_YF] | inactive: 0.622
QGIYGYHHHMQ [UFSP2_Y287_Y290H] | inactive: 2.54
IATTIYSGDKI [UGGT2_Y823_A821T] | inactive: 0.801
SEELHYYVQNH [UQCRC2_Y207_F208Y] | inactive: 1.08
LFLACYFIGGG [UBD_Y161_C162F] | active: 4
QRALLYEDALY [UNC13D_Y56] | inactive: 0.759

These binders were tested against SHP2 N-SH2 domain L43F in the same assay as above. Conditions: peptide library: pTyr-Var.

Binder | enrichment score
NSRYTYKLEVK [USH2A_Y3747] | inactive: 0.804
KMMGRYEMYAR [UPB1_Y362_T359M] | inactive: 0.868
TPGPNYCPGFN [USH2A_Y463_R464C_YF] | inactive: 0.691
DGTIVCTGLET [USH2A_Y4487_Y4487C] | inactive: 0.558
TVLWRYTGTRP [UGT1A1_Y337] | inactive: 0.189
FKDVTYLKEEK [UBE3A_Y127_T129K] | inactive: 0.685
VFDMLYQVANL [USP24_Y1087_L1089V] | inactive: 1.62
ASELGYQFQAI [UROD_Y133_V134Q] | inactive: 0.766
KMTGRYEMFAR [UPB1_Y362_YF] | inactive: 1.19
VVQGIYGFHHF [UFSP2_Y285_YF] | inactive: 1.64
DDDPEYRKFLE [UPF3B_Y160] | inactive: 0.415
EYGFRYELVQY [UGGT2_Y1289] | inactive: 0.932
SHNELYFEAAE [VANGL1_Y344_E347A_YF] | inactive: 0.7
QGIYGYHHHMQ [UFSP2_Y287_Y290H] | inactive: 2.69
IATTIYSGDKI [UGGT2_Y823_A821T] | inactive: 0.743
SEELHYYVQNH [UQCRC2_Y207_F208Y] | inactive: 0.8
LFLACYFIGGG [UBD_Y161_C162F] | inactive: 2.96
QRALLYEDALY [UNC13D_Y56] | inactive: 1.01

Each binder was assayed against SHP2 N-SH2 domain T42A in the same assay as above. Conditions: peptide library: pTyr-Var.

Binder | enrichment score
NSRYTYKLEVK [USH2A_Y3747] | inactive: 0.805
KMMGRYEMYAR [UPB1_Y362_T359M] | inactive: 0.82
TPGPNYCPGFN [USH2A_Y463_R464C_YF] | inactive: 0.552
DGTIVCTGLET [USH2A_Y4487_Y4487C] | inactive: 0.834
TVLWRYTGTRP [UGT1A1_Y337] | inactive: 0.265
FKDVTYLKEEK [UBE3A_Y127_T129K] | inactive: 0.941
VFDMLYQVANL [USP24_Y1087_L1089V] | inactive: 1.64
ASELGYQFQAI [UROD_Y133_V134Q] | inactive: 0.775
KMTGRYEMFAR [UPB1_Y362_YF] | inactive: 1.27
VVQGIYGFHHF [UFSP2_Y285_YF] | inactive: 1.73
DDDPEYRKFLE [UPF3B_Y160] | inactive: 0.325
EYGFRYELVQY [UGGT2_Y1289] | inactive: 0.903
SHNELYFEAAE [VANGL1_Y344_E347A_YF] | inactive: 0.609
QGIYGYHHHMQ [UFSP2_Y287_Y290H] | inactive: 2.42
IATTIYSGDKI [UGGT2_Y823_A821T] | inactive: 0.559
SEELHYYVQNH [UQCRC2_Y207_F208Y] | inactive: 0.825
LFLACYFIGGG [UBD_Y161_C162F] | inactive: 2.9
QRALLYEDALY [UNC13D_Y56] | inactive: 0.551

These binders were tested against SHP2 N-SH2 domain T52S in the same assay as above. Conditions: peptide library: pTyr-Var.

Binder | enrichment score
NSRYTYKLEVK [USH2A_Y3747] | inactive: 0.802
KMMGRYEMYAR [UPB1_Y362_T359M] | inactive: 1.08
TPGPNYCPGFN [USH2A_Y463_R464C_YF] | inactive: 0.839
DGTIVCTGLET [USH2A_Y4487_Y4487C] | inactive: 0.715
TVLWRYTGTRP [UGT1A1_Y337] | inactive: 0.327
FKDVTYLKEEK [UBE3A_Y127_T129K] | inactive: 0.705
VFDMLYQVANL [USP24_Y1087_L1089V] | inactive: 1.41
ASELGYQFQAI [UROD_Y133_V134Q] | inactive: 0.881
KMTGRYEMFAR [UPB1_Y362_YF] | inactive: 1.37
VVQGIYGFHHF [UFSP2_Y285_YF] | inactive: 1.57
DDDPEYRKFLE [UPF3B_Y160] | inactive: 0.507
EYGFRYELVQY [UGGT2_Y1289] | inactive: 0.816
SHNELYFEAAE [VANGL1_Y344_E347A_YF] | inactive: 0.676
QGIYGYHHHMQ [UFSP2_Y287_Y290H] | inactive: 2.43
IATTIYSGDKI [UGGT2_Y823_A821T] | inactive: 0.842
SEELHYYVQNH [UQCRC2_Y207_F208Y] | inactive: 0.843
LFLACYFIGGG [UBD_Y161_C162F] | inactive: 3.04
QRALLYEDALY [UNC13D_Y56] | inactive: 0.648

The binders below were run against SHP2 N-SH2 domain wild-type in the same assay as above. Conditions: peptide library: pTyr-Var.

Binder | enrichment score
NSRYTYKLEVK [USH2A_Y3747] | inactive: 0.678
KMMGRYEMYAR [UPB1_Y362_T359M] | inactive: 0.899
TPGPNYCPGFN [USH2A_Y463_R464C_YF] | inactive: 0.692
DGTIVCTGLET [USH2A_Y4487_Y4487C] | inactive: 0.812
TVLWRYTGTRP [UGT1A1_Y337] | inactive: 0.322
FKDVTYLKEEK [UBE3A_Y127_T129K] | inactive: 0.665
VFDMLYQVANL [USP24_Y1087_L1089V] | inactive: 1.42
ASELGYQFQAI [UROD_Y133_V134Q] | inactive: 0.877
KMTGRYEMFAR [UPB1_Y362_YF] | inactive: 1.38
VVQGIYGFHHF [UFSP2_Y285_YF] | inactive: 1.52
DDDPEYRKFLE [UPF3B_Y160] | inactive: 0.373
EYGFRYELVQY [UGGT2_Y1289] | inactive: 1.06
SHNELYFEAAE [VANGL1_Y344_E347A_YF] | inactive: 0.786
QGIYGYHHHMQ [UFSP2_Y287_Y290H] | inactive: 2.42
IATTIYSGDKI [UGGT2_Y823_A821T] | inactive: 0.835
SEELHYYVQNH [UQCRC2_Y207_F208Y] | inactive: 1.11
LFLACYFIGGG [UBD_Y161_C162F] | inactive: 3.03
QRALLYEDALY [UNC13D_Y56] | inactive: 0.903
